# Out of some 360,000 compounds screened, about 660 (0.18%) were called active. This list was built around the results that the source calls inconclusive (neither active nor inactive); the mix of calls is not that of the screen. Calls follow the shape of the dose curve; as a rule, active = well fitted inhibition curve with a large enough effect; inconclusive = small, poorly fitted or top-dose-only effect; inactive = no such curve, though single readings can be large or run the other way. No potency is given beside an inconclusive call; the fits are too rough.
# Target: Rap guanine nucleotide exchange factor 4 (Homo sapiens) (UniProt Q8WZA2)
# Assay: qHTS for Antagonist of cAMP-regulated guanine nucleotide exchange factor 2 (EPAC2): primary screen; also: nearly all actives have a fitted effect of over 45% in size
# Conditions: EPAC2 GEF exchange of Rap1B-BODIPY-GDP, fluorescence; activity, negative = inhibition: at 114 µM (top of the series) unless noted
# % is scaled to controls: 0 for no effect and ±100 for the full control effect; potency is read from the fitted curve at half-maximal effect; tags tell the direction and shape of the fitted curve.
# Sequence of UniProt Q8WZA2 (Q8WZA2 whole entry, looked up): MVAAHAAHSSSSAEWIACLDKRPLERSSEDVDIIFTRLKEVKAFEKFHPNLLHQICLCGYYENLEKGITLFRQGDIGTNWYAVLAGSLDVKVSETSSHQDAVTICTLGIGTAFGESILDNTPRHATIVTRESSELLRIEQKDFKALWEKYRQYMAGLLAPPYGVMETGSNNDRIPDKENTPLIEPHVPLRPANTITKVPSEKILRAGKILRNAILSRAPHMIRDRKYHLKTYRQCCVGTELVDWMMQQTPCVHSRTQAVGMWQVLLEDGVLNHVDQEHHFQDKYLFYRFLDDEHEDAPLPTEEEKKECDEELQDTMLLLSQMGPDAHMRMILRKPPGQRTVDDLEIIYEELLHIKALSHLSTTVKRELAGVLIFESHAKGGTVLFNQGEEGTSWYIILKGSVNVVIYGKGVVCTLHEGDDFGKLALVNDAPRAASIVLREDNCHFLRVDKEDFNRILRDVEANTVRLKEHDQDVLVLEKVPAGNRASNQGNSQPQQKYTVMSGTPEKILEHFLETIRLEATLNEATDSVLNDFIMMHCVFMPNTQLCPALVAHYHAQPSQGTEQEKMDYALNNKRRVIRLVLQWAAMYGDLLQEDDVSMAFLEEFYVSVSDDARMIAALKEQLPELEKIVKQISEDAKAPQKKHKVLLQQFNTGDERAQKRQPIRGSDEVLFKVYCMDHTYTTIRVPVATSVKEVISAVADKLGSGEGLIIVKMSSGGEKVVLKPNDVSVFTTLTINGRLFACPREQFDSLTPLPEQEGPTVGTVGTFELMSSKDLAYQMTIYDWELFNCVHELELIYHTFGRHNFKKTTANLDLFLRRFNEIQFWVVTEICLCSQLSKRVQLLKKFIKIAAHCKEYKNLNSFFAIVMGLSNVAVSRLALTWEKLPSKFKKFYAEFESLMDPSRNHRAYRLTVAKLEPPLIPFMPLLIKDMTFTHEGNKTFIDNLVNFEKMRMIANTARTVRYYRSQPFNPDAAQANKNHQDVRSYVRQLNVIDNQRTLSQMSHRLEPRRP
Structure (SMILES),Potency,"activity, negative = inhibition"
Cc1cc2oc(=O)cc(CN(C)Cc3cccc(F)c3)c2cc1Cl,"inconclusive [inhibitor, partial curve]",–
C=CCn1c(SCC)nc2sc3c(c2c1=O)CCc1ccccc1-3,inactive,–
CC(C)C1CC2=C(C(=O)OC(C)(C)O2)C(c2ccc(F)cc2)O1 (configuration not stated),"inconclusive [inhibitor, single point]",–
Cc1cccc(OCCn2cnc(Cl)c2Cl)c1,"inconclusive [inhibitor, single point]",–
COC(=O)c1c(-c2ccc(SC)cc2)sc2ccc(OC)cc12,"inconclusive [inhibitor, full curve, poor fit]",–
CCc1nc2c(OCc3ccc(C(F)(F)F)cc3)cccn2c1N(C)C(=O)c1ccco1,"inconclusive [inhibitor, partial curve]",–
O=S(=O)(Nn1c(O)c(C=C2N=c3ccccc3=N2)sc1=S)c1ccccc1,"inconclusive [inhibitor, partial curve]",–
COc1ccc(S(=O)(=O)Nc2ccc3cn[nH]c3c2)cc1C,"inconclusive [inhibitor, partial curve]",–
COC(=O)[C@@]12C[C@@H](CC(=O)NCCCCc3ccccc3)C(=O)N(Cc3ccccc3)C1=CCC(C)(C)C2,–,inconclusive: -14.5% [inhibitor]
CCOc1cc(C2C(C(C)=O)=C(O)C(=O)N2CCc2c[nH]c3ccccc23)ccc1O (configuration not stated),"inconclusive [inhibitor, single point]",–
COc1cccc(C(NC(C)=O)c2nc(-c3ccccc3OC)cs2)c1 (configuration not stated),"inconclusive [inhibitor, partial curve, poor fit]",–
O=C(COC(=O)c1ccccc1C(=O)c1ccccc1)NCCc1ccccc1,"inconclusive [inhibitor, single point]",–
COc1ccccc1N(C)S(=O)(=O)c1ccc(C(=O)OCC(=O)N(C)c2ccccc2)cc1,"inconclusive [inhibitor, single point]",–
Cc1cc(C)n2c(NC3CCCC3)c(-c3cc4ccccc4o3)nc2n1,"inconclusive [inhibitor, full curve, poor fit]",–
NC(=O)COC(=O)c1ccc(Cl)c(S(=O)(=O)N(Cc2ccccc2)c2ccc(Cl)cc2)c1,"inconclusive [inhibitor, partial curve]",–
Cc1ccc2c(CN3CCCCC3C)cc(=O)oc2c1 (configuration not stated),"inconclusive [inhibitor, partial curve]",–
Cn1c(=O)c2c(SCc3ccccn3)nc(CC(C)(C)C)nc2n(C)c1=O,"inconclusive [inhibitor, full curve, poor fit]",–
Cc1ccc(S(=O)(=O)Nc2ccc(NC(=O)Nc3ccc(F)cc3F)cc2)cc1,"inconclusive [inhibitor, partial curve]",–
Cc1cc(/C=C2/C(=N)N3C(=NC2=O)SN=C3S(C)(=O)=O)c(C)n1-c1ccc(F)cc1,inactive,–
CCOc1ccc(Br)cc1S(=O)(=O)Nc1cccc(S(=O)(=O)Nc2ccccc2C(=O)O)c1,"inconclusive [inhibitor, partial curve]",–
CC1(C(=O)NS(=O)(=O)c2ccccc2Cl)CCN1C(=O)C1(c2ccccc2)CCCC1 (configuration not stated),"inconclusive [inhibitor, full curve, poor fit]",–

Structure (SMILES),Potency,"activity, negative = inhibition"
C#CCOCCOCCOCCNc1nc(N2CCN(C(=O)CCCCCCCCCCNC(=O)[C@H](CCCCN)n3cc(C[C@@H](C)CC)nn3)CC2)nc(N2CCN(C(=O)CCCCCCCCCCNC(=O)[C@H](CCCCN)n3cc(C[C@@H](C)CC)nn3)CC2)n1,"inconclusive [inhibitor, partial curve]",–
Cc1ccccc1OCC(=O)Nc1ccccc1N1CCC(C)CC1,"inconclusive [inhibitor, partial curve]",–
Cc1ccc(-c2nc3ccc(C)cn3c2Cc2cccc(F)c2)cc1,"inconclusive [inhibitor, partial curve]",–
CN(C)c1ccc(CNC(=O)C2Cc3c(-c4cccc(C(N)=O)c4)ccnc3O2)cc1 (configuration not stated),"inconclusive [inhibitor, single point]",–
Cc1cc2ccccn2c1C(=O)c1cccc(F)c1,"inconclusive [inhibitor, partial curve]",–
CC(C)c1ccc(C2CC(=O)c3cnc(NC(=O)c4ccco4)nc3C2)cc1 (configuration not stated),"inconclusive [inhibitor, partial curve]",–
COc1ccc(C(=O)NCC(=O)OCc2c(Cl)cccc2Cl)cc1OC,"inconclusive [inhibitor, single point]",–
CNC(=O)NC(=O)C(C)OC(=O)c1c2c(nc3ccccc13)/C(=C/c1cccs1)CC2 (configuration not stated),"inconclusive [inhibitor, partial curve]",–
O=C(Nc1cccnc1)C1Cc2c(-c3ccccc3Oc3ccccc3)ccnc2O1 (configuration not stated),"inconclusive [inhibitor, single point]",–
CN1C(=O)Cc2cc(S(=O)(=O)NCc3cccs3)ccc21,"inconclusive [inhibitor, partial curve, poor fit]",–
COc1ccc(OC)c(C=C2CCc3ccccc3C2=O)c1,"inconclusive [inhibitor, full curve, poor fit]",–
CC(C)(C)c1ccc(Oc2ccc(N)cc2)cc1,"inconclusive [inhibitor, partial curve]",–
COc1ccc(C2=CC3=C(Br)C(=O)C(C)(OC(=O)c4ccco4)C(=O)C3=CO2)cc1 (configuration not stated),"inconclusive [inhibitor, full curve, poor fit]",–
CCCOC(=O)c1ccc(NC(=O)c2cc(OC)c(OC)c(OC)c2Br)cc1,"inconclusive [inhibitor, partial curve]",–
C[C@@H]1COC(=O)CCC/C=C\C[C@@H](CC(=O)N(CCO)Cc2ccccc2)C(=O)N1,inactive,–
CC(=O)Nc1ccc2c(c1Br)Cc1ccccc1-2,inactive,–
COC(=O)CSc1ncnc2scc(-c3ccccc3)c12,"inconclusive [inhibitor, single point]",–
O=C(Nc1cc(S(=O)(=O)N2CCCCC2)ccc1O)c1ccccc1NS(=O)(=O)c1ccc(F)cc1,"inconclusive [inhibitor, partial curve]",–
CCCC1=Nc2cc(C(=O)N3CCCC3)ccc2Sc2ccc(C)cc21,"inconclusive [inhibitor, partial curve]",–
COc1cc(Br)c(CNc2cc(C)ccc2C)cc1OC,"inconclusive [inhibitor, full curve]",–
CCOC1(c2ccccc2)OC(=O)c2ccccc21 (configuration not stated),"inconclusive [inhibitor, single point]",–

Structure (SMILES),Potency,"activity, negative = inhibition"
Cc1nc(N2CCC(C)CC2)c2c(C)c(C(=O)Nc3cccc(C(F)(F)F)c3)sc2n1,"inconclusive [inhibitor, full curve]",–
O=C(O)c1ccc(-c2ccc(/C=C3\NC(=O)N(Cc4ccc(Cl)cc4)C3=O)o2)cc1Cl,"inconclusive [inhibitor, single point]",–
COC1=C/C(=C/c2c(N)n3nc(CC(=O)N4CCCC4)sc3nc2=O)C=CC1=O,inactive,–
CC1CCN(c2ccc3c(c2)S(=O)(=O)c2cccc(C(=O)NC[C@@H]4CCCO4)c2C3=O)CC1,inactive,–
COc1ccccc1Nc1ncc(C(=O)N2CCC(C(N)=O)CC2)c2ccccc12,"inconclusive [inhibitor, partial curve, poor fit]",–
O=[N+]([O-])c1cccc(S(=O)(=O)Nc2nc3ccccc3nc2Nc2cccc(S(=O)(=O)N3CCCCC3)c2)c1,"inconclusive [inhibitor, partial curve]",–
C=CCCCN(Cc1ccccc1)S(=O)(=O)c1ccccc1Br,"inconclusive [inhibitor, single point]",–
CCCn1c(=N)c(C#N)cc2c(=O)n3ccccc3nc21,inactive,–
CCOCCc1nnc(NC(=O)c2cccc(F)c2)s1,inactive,–
COC(=O)c1cc2sc(Cl)cc2n1Cc1nc(-c2ccccc2)oc1C,"inconclusive [inhibitor, single point]",–
CC(C)Oc1ccc(F)cc1-c1cc(C(=O)NCc2ccc(C(F)(F)F)cc2)[nH]n1,"inconclusive [inhibitor, single point]",–
O=C(CN1CCSC1=O)Nc1ccc(N2CCOCC2)cc1,inactive,–
CC(C)(C)CC(C)(C)c1ccc(O)c(Cc2ccc(Cl)cc2Cl)c1,"inconclusive [inhibitor, full curve]",–
Cc1[nH]n(-c2ccccc2)c(=O)c1Sc1ccc(Cl)cc1,inactive,–
COc1ccc(NC(=O)C(Cc2ccccc2)n2cccc2)cc1 (configuration not stated),"inconclusive [inhibitor, single point]",–
CCN(CC)C(=S)Oc1ccc(Cl)cc1Cl,"inconclusive [inhibitor, partial curve]",–
CCCCn1nnnc1C(c1ccccc1)N1CCc2ccccc2C1 (configuration not stated),"inconclusive [inhibitor, partial curve]",–
COC(=O)CSc1nc2sc3c(c2c(=O)n1-c1ccc(OC)cc1)CCN(C)C3,"inconclusive [inhibitor, full curve]",–
Cc1ccc(NC2c3ncccc3C(=O)N2Cc2ccco2)c(C)c1 (configuration not stated),"inconclusive [inhibitor, partial curve]",–
Cc1ccc(S(=O)(=O)N2CCN(C(=O)c3cccc(-n4cccc4)c3)CC2)cc1,inactive,–

# From PubChem BioAssay AID720708 (National Center for Advancing Translational Sciences (NCATS), 2013)
